Assay results from the supplement of paper PMC4967469.
By IC50 is meant the dose at which the fit gives 50% viability; where the fit passes the top or lowest dose, that dose stands as a limit. The AUC spans the tested range (256-fold, ending at the top dose) of the same fit; it is 1 without any effect and falls as sensitivity rises. Any top dose called inferred comes from the curve model; the source does not state it.

compound: C=CC(=O)Nc1cccc(Nc2nc(NC3CCC(N(C)C)CC3)nc3c2ncn3C(C)C)c1 [WZ3105]; test: Viability of human cancer cell lines after 72 h of drug (GDSC screen); settings: top dose inferred
Description: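 Human cancer cell lines in 384-well plates, medium with 10% serum, drug for 72 h over a 256-fold dose range (nine 2-fold or five 4-fold steps up to the top dose). Adherent lines were fixed and stained with the nucleic acid dye Syto60, suspension lines read with resazurin; signal relative to control wells, capped at 0 and 100%. One two-parameter sigmoid per drug and line, fitted in a mixed model over all curves with the slope shared within a line.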

Cell Line	AUC	IC50 [nM]
MIA-PaCa-2 (pancreas, adherent, top dose 1.28 µM)	0.926	> 1280
MKN1 (stomach, adherent, top dose 1.28 µM)	0.911	> 1280
MKN28 (stomach, adherent, top dose 1.28 µM)	0.929	> 1280
MKN45 (stomach, adherent, top dose 1.28 µM)	0.82	999
ML-1 (thyroid, adherent, top dose 1.28 µM)	0.891	> 1280
ML-2 (acute myeloid leukaemia, suspension, top dose 1.28 µM)	0.556	111
MLMA (hairy cell leukaemia, semi-adherent, top dose 1.28 µM)	0.489	74.8
MMAC-SF (melanoma, adherent, top dose 1.28 µM)	0.859	1130
MN-60 (B-cell leukaemia, suspension, top dose 1.28 µM)	0.691	281
MOG-G-CCM (glioma, adherent, top dose 1.28 µM)	0.794	705
MOG-G-UVW (glioma, adherent, top dose 1.28 µM)	0.794	570
MOLM-13 (acute myeloid leukaemia, suspension, top dose 1.28 µM)	0.176	9.17
MOLP-8 (myeloma, suspension, top dose 1.28 µM)	0.458	61.9
MOLT-4 (lymphoblastic leukaemia, suspension, top dose 10.24 µM)	0.215	116
MOLT-13 (T-cell lymphoblastic leukaemia, suspension, top dose 1.28 µM)	0.661	211
MONO-MAC-6 (acute myeloid leukaemia, suspension, top dose 1.28 µM)	0.505	82.8
MPP-89 (mesothelioma, adherent, top dose 1.28 µM)	0.974	> 1280
MRK-nu-1 (breast, suspension, top dose 1.28 µM)	0.838	768
MS751 (cervix, adherent, top dose 1.28 µM)	0.902	> 1280
MS-1 (small cell lung carcinoma, suspension, top dose 1.28 µM)	0.9	> 1280
MSTO-211H (mesothelioma, adherent, top dose 1.28 µM)	0.988	> 1280
MV-4-11 (leukaemia, suspension, top dose 1.28 µM)	0.275	21.1
MY-M12 (leukaemia, suspension, top dose 1.28 µM)	0.52	91.1
MZ1-PC (pancreas, adherent, top dose 1.28 µM)	0.553	115
MZ2-MEL (melanoma, adherent, top dose 1.28 µM)	0.739	440

Cell Line	AUC	IC50 [nM]
MZ7-mel (melanoma, adherent, top dose 1.28 µM)	0.692	283
Mewo (melanoma, adherent, top dose 1.28 µM)	0.917	> 1280
Mo-T (hairy cell leukaemia, suspension, top dose 1.28 µM)	0.683	264
NALM-6 (B-cell leukaemia, suspension, top dose 1.28 µM)	0.381	39.9
NAMALWA (Burkitt lymphoma, suspension, top dose 1.28 µM)	0.579	127
NB1 (neuroblastoma, semi-adherent, top dose 1.28 µM)	0.898	> 1280
NB5 (neuroblastoma, adherent, top dose 1.28 µM)	0.984	> 1280
NB6 (neuroblastoma, adherent, top dose 1.28 µM)	0.934	> 1280
NB7 (neuroblastoma, adherent, top dose 1.28 µM)	0.752	441
NB10 (neuroblastoma, adherent, top dose 1.28 µM)	0.97	> 1280
NB12 (neuroblastoma, adherent, top dose 1.28 µM)	0.751	557
NB13 (neuroblastoma, adherent, top dose 1.28 µM)	0.971	> 1280
NB14 (neuroblastoma, adherent, top dose 1.28 µM)	0.857	946
NB17 (neuroblastoma, adherent, top dose 1.28 µM)	0.611	169
NB69 (neuroblastoma, adherent, top dose 1.28 µM)	0.888	1150
NB(TU)1-10 (neuroblastoma, adherent, top dose 1.28 µM)	0.982	> 1280
NB-4 (acute myeloid leukaemia, suspension, top dose 1.28 µM)	0.35	33.4
NCC021 (kidney, adherent, top dose 1.28 µM)	0.985	> 1280
NCI-H23 (lung adenocarcinoma, adherent, top dose 1.28 µM)	0.943	> 1280
NCI-H28 (mesothelioma, adherent, top dose 1.28 µM)	0.977	> 1280
NCI-H64 (small cell lung carcinoma, suspension, top dose 1.28 µM)	0.687	229
NCI-H69 (small cell lung carcinoma, suspension, top dose 1.28 µM)	0.65	219
NCI-H82 (small cell lung carcinoma, suspension, top dose 1.28 µM)	0.829	741
NCI-H187 (small cell lung carcinoma, suspension, top dose 1.28 µM)	0.737	407
NCI-H196 (small cell lung carcinoma, adherent, top dose 1.28 µM)	0.829	845

Cell Line	AUC	IC50 [nM]
NCI-H209 (small cell lung carcinoma, suspension, top dose 1.28 µM)	0.686	277
NCI-H211 (small cell lung carcinoma, adherent, top dose 1.28 µM)	0.543	104
NCI-H226 (lung squamous cell carcinoma, adherent, top dose 1.28 µM)	0.934	> 1280
NCI-H292 (lung adenocarcinoma, adherent, top dose 1.28 µM)	0.979	> 1280
NCI-H322M (lung adenocarcinoma, suspension, top dose 1.28 µM)	0.892	> 1280
NCI-H345 (small cell lung carcinoma, suspension, top dose 1.28 µM)	0.911	> 1280
NCI-H358 (lung adenocarcinoma, adherent, top dose 1.28 µM)	0.725	379
NCI-H441 (lung adenocarcinoma, adherent, top dose 1.28 µM)	0.962	> 1280
NCI-H446 (small cell lung carcinoma, semi-adherent, top dose 1.28 µM)	0.52	91
NCI-H460 (large cell lung carcinoma, adherent, top dose 1.28 µM)	0.989	> 1280
NCI-H510A (small cell lung carcinoma, semi-adherent, top dose 1.28 µM)	0.797	546
NCI-H520 (lung squamous cell carcinoma, adherent, top dose 1.28 µM)	0.502	81
NCI-H522 (lung adenocarcinoma, adherent, top dose 1.28 µM)	0.691	306
NCI-H524 (small cell lung carcinoma, suspension, top dose 1.28 µM)	0.686	249
NCI-H526 (small cell lung carcinoma, suspension, top dose 1.28 µM)	0.553	111
NCI-H596 (lung adenocarcinoma, adherent, top dose 1.28 µM)	0.805	884
NCI-H630 (large intestine, adherent, top dose 10.24 µM)	0.957	> 10200
NCI-H647 (non-small cell lung carcinoma, adherent, top dose 1.28 µM)	0.677	257
NCI-H650 (lung adenocarcinoma, adherent, top dose 1.28 µM)	0.8	695
NCI-H661 (large cell lung carcinoma, adherent, top dose 1.28 µM)	0.784	667
NCI-H716 (large intestine, suspension, top dose 10.24 µM)	0.804	6780
NCI-H720 (lung carcinoid, suspension, top dose 1.28 µM)	0.977	> 1280
NCI-H727 (lung carcinoid, adherent, top dose 1.28 µM)	0.916	> 1280
NCI-H747 (large intestine, adherent, top dose 10.24 µM)	0.163	45
NCI-H748 (small cell lung carcinoma, suspension, top dose 1.28 µM)	0.435	50.5
